Positions count from the first letter of the chain named. Numbers in names are those of the source. No constants are given. Whether binding was seen depends on the method and setting. For some of these results: Binding seen in cells or lysates may run through a third protein. Some results given as binding are weak or reduced against the parent protein; the word gives no strength. For some of these results: Sequences can lack the tags named with a protein. Blank lines part the entries; values can stand above or below the binder they belong to.
Legend:
[1] = target: Cgi-58 (endogenous, murine WAT) (mouse (endogenous in gonadal WAT)) (UniProt Q9DBL9); assay: co-IP; endogenous proteins in gonadal WAT lysate of an overnight fasted C57BL/6 mouse (700 μg of total protein; 50 mM Tris, pH 7.4, 150 mM NaCl, 1% Nonidet P-40, 1 mM EDTA); monoclonal antibodies against A-Fabp, Cgi-58 or Gfp (control), protein A/G-Sepharose, Western blotting
[2] = target: Strep-tagged A-Fabp (human) (UniProt P15090); assay: ELISA; solid phase assay: 96-well polystyrene plates coated overnight with 3 μg of purified Fabp, blocked with 5% delipidated BSA in TBS (50 mM Tris, pH 8.0, 150 mM NaCl); COS-7 cell extracts (10–60 μg of total protein) with His-tagged proteins, 2% BSA, 0.05% Tween 20, overnight; anti-His primary and Hrp-conjugated secondary antibody, absorbance 450/620 nm; only the target purified
[3] = target: E-Fabp (human) (UniProt Q01469); assay: as above
[4] = target: H-Fabp (human) (UniProt P05413); assay: as above
[5] = target: T1, I-Fabp (human) (UniProt P12104); assay: as above
T1 sequence: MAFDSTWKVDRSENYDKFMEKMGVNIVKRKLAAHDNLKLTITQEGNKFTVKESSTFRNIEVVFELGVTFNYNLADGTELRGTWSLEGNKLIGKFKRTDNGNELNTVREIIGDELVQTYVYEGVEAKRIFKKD

Amino acid sequences for entries named in this document (tags omitted).
UniProt Q9DBL9: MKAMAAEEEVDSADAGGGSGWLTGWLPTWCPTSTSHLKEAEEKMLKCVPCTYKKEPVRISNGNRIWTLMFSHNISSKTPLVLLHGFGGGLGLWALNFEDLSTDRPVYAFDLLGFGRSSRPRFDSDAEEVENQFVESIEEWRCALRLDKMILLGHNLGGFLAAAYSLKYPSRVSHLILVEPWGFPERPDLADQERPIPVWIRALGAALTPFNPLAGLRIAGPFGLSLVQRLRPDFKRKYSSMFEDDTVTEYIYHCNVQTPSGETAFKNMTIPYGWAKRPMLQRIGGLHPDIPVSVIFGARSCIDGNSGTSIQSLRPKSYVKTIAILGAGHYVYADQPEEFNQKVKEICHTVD
UniProt Q01469: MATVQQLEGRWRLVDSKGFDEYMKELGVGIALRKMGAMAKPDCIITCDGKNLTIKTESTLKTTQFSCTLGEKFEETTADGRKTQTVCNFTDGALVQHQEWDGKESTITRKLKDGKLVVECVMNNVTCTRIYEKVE
UniProt P05413: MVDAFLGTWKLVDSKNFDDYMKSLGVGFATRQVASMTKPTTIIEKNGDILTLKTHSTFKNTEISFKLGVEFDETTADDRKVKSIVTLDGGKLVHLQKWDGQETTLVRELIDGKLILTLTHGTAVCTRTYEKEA

[6] = target: T2, L-Fabp (human) (UniProt P07148); assay: as above
T2 sequence: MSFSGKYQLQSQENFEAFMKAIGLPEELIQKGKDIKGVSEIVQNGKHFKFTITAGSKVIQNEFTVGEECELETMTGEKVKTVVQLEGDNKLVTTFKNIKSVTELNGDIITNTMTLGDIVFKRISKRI

binding [1]: binds
B1: Fatty acid-binding protein, adipocyte (protein, UniProt P04117 1-132)
chain: MCDAFVGTWKLVSSENFDDYMKEVGVGFATRKVAGMAKPNMIISVNGDLVTIRSESTFKNTEISFKLGVEFDEITADDRKVKSIITLDGGALVQVQKWDGKSTTIKRKRDGDKLVVECVMKGVTSTRVYERA

binding [2]: binds weakly
B2: Cgi-58^190TER (domain or fragment, UniProt Q8WTS1 1-189)
chain: MAAEEEEVDSADTGERSGWLTGWLPTWCPTSISHLKEAEEKMLKCVPCTYKKEPVRISNGNKIWTLKFSHNISNKTPLVLLHGFGGGLGLWALNFGDLCTNRPVYAFDLLGFGRSSRPRFDSDAEEVENQFVESIEEWRCALGLDKMILLGHNLGGFLAAAYSLKYPSRVNHLILVEPWGFPERPDLAD

B3: His-tagged murine Atgl (enzyme, UniProt Q8BJ56 1-486)
chain: MFPRETKWNISFAGCGFLGVYHIGVASCLREHAPFLVANATHIYGASAGALTATALVTGACLGEAGANIIEVSKEARKRFLGPLHPSFNLVKTIRGCLLKTLPADCHERANGRLGISLTRVSDGENVIISHFSSKDELIQANVCSTFIPVYCGLIPPTLQGVRYVDGGISDNLPLYELKNTITVSPFSGESDICPQDSSTNIHELRVTNTSIQFNLRNLYRLSKALFPPEPMVLREMCKQGYRDGLRFLRRNGLLNQPNPLLALPPVVPQEEDAEEAAVVEERAGEEDQLQPYRKDRILEHLPARLNEALLEACVEPKDLMTTLSNMLPVRLATAMMVPYTLPLESAVSFTIRLLEWLPDVPEDIRWMKEQTGSICQYLVMRAKRKLGDHLPSRLSEQVELRRAQSLPSVPLSCATYSEALPNWVRNNLSLGDALAKWEECQRQLLLGLFCTNVAFPPDALRMRAPASPTAADPATPQDPPGLPPC
binding [2]: no binding (tested: cell extracts, 10–60 μg of total protein)

binding [2]: binds
B4: His-tagged murine Hsl (enzyme, UniProt P54310 1-759)
chain: MDLRTMTQSLVTLAEDNMAFFSSQGPGETARRLSNVFAGVREQALGLEPTLGQLLGVAHHFDLDTETPANGYRSLVHTARCCLAHLLHKSRYVASNRKSIFFRASHNLAELEAYLAALTQLRAMAYYAQRLLTINRPGVLFFEGDEGLTADFLQEYVTLHKGCFYGRCLGFQFTPAIRPFLQTLSIGLVSFGEHYKRNETGLSVTASSLFTGGRFAIDPELRGAEFERIIQNLDVHFWKAFWNITEIEVLSSLANMASTTVRVSRLLSLPPEAFEMPLTSDPRLTVTISPPLAHTGPAPVLARLISYDLREGQDSKVLNSLAKSEGPRLELRPRPHQAPRSRALVVHIHGGGFVAQTSKSHEPYLKNWAQELGVPIFSIDYSLAPEAPFPRALEECFFAYCWAVKHCDLLGSTGERICLAGDSAGGNLCITVSLRAAAYGVRVPDGIMAAYPVTTLQSSASPSRLLSLMDPLLPLSVLSKCVSAYSGTEAEDHFDSDQKALGVMGLVQRDTSLFLRDLRLGASSWLNSFLELSGRKPQKTTSPTAESVRPTESMRRSVSEAALAQPEGLLGTDTLKKLTIKDLSNSEPSDSPEMSQSMETLGPSTPSDVNFFLRPGNSQEEAEAKDEVRPMDGVPRVRAAFPEGFHPRRSSQGVLHMPLYTSPIVKNPFMSPLLAPDSMLKTLPPVHLVACALDPMLDDSVMFARRLRDLGQPVTLKVVEDLPHGFLSLAALCRETRQATEFCVQRIRLILTPPAAPLN

binding [3]: binds
binding [4]: binds
binding [5]: binds
binding [6]: binds
binding [2]: binds
B5: His-tagged human Cgi-58 (protein, UniProt Q8WTS1 1-349)
chain: MAAEEEEVDSADTGERSGWLTGWLPTWCPTSISHLKEAEEKMLKCVPCTYKKEPVRISNGNKIWTLKFSHNISNKTPLVLLHGFGGGLGLWALNFGDLCTNRPVYAFDLLGFGRSSRPRFDSDAEEVENQFVESIEEWRCALGLDKMILLGHNLGGFLAAAYSLKYPSRVNHLILVEPWGFPERPDLADQDRPIPVWIRALGAALTPFNPLAGLRIAGPFGLSLVQRLRPDFKRKYSSMFEDDTVTEYIYHCNVQTPSGETAFKNMTIPYGWAKRPMLQRIGKMHPDIPVSVIFGARSCIDGNSGTSIQSLRPHSYVKTIAILGAGHYVYADQPEEFNQKVKEICDTVD

binding [2]: binds
B6: Cgi-58^E7K (protein, UniProt Q8WTS1 1-349)
chain: B5 chain with E7K

From PMC4513104
